Measured values reported in article PMC5405867 (Nature structural & molecular biology, 2017).

Target: T1, murine USP18 catalytic core (residues 46-368), His6-tagged (mouse, UniProt Q9WTV6 46-368)
T1 sequence (looked up): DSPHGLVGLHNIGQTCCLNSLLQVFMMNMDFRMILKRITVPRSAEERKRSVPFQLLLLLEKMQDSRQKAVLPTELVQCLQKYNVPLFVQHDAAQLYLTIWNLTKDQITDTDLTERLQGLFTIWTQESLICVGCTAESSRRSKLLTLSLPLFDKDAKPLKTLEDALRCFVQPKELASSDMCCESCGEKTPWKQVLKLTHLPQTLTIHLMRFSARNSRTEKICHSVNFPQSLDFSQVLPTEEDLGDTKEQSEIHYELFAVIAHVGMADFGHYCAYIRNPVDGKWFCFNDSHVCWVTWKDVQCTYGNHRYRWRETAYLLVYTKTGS
Test: covalent adduct formation with an active-site probe

B1: human ISG15-PA ([…], C78S, propargylamide probe) (natural protein)
chain: not shown
modifications: C-terminal propargylamide (PA)
Q: Does B1 bind?
A: binds
